# “And” between values parts separate entries of the source, which are not always exact repeats. Identical values can stand only once. In all, about 71,000 compounds went through this assay and about 1,800 (2.5%) were called active. The inconclusive results got no clear call from the source; some entries with a clear call stand among them for comparison. Calls come from the whole dose curve; as a rule, active = well fitted activation curve with a large enough effect in the signal ratio, with a control signal flat (not every such curve was filed as active); inconclusive = small, poorly fitted or top-dose-only effect, or effect the other way, or a change in a side signal; inactive = flat fitted curve, though single readings scatter; the % refers to the signal ratio. Potencies of inconclusive entries are doubtful fits and often do not repeat.
# Assay: Cell signaling CRE-BLA (Fsk stim); for activity change, negative = inhibition: % of control where 0% means no effect
# Conditions: CHO CRE-bla reporter (cAMP response element driving beta-lactamase), forskolin EC10, beta-lactamase ratio
# In short: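 Reporter-gene assay: CHO cells with beta-lactamase behind cAMP responsive elements, co-treated with compound and EC10 NKH 477 for 3 hours at 37 degrees Celsius. Activity came from the 460/530 nm CCF4 emission ratio.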
# [1] = activity change, negative = inhibition: at 38.2 µM (top of the series) unless noted
# Potency is the fitted concentration of half-maximal effect; tags give direction and shape of the fitted curve.
compound,measurement,setting,value
CCC(=O)N1c2ccc(S(=O)(=O)CCC(=O)Nc3nccs3)cc2CC1C (stereo unspecified),"activity change, negative = inhibition",[1],inconclusive: -4.5%
Cn1c(=O)[nH]c(=O)c2c1nc(NCCCO)n2CCCc1ccccc1,Potency,[1],"inconclusive: 12.6 µM [rising, single point]"
COc1ccc(-c2cc(C(=O)Nc3ccc(C)cc3)no2)cc1,"activity change, negative = inhibition",[1],inconclusive: 7.41%
CCOC(=O)c1cnc(N2CCOCC2)[nH]c1=O,"activity change, negative = inhibition",[1],inactive
N#CC1=C(C2CC2)CC(c2ccccc2)C(C#N)=C1N (stereo unspecified),"activity change, negative = inhibition",[1],inactive
Cc1noc(NS(=O)(=O)c2ccc(NC(=O)CCC3CCCCC3)cc2)c1C,"activity change, negative = inhibition",[1],inconclusive: -0.935%
N#CC1=C(SCC(=O)NC23CC4CC(CC(C4)C2)C3)NC(=O)C(C#N)C12CCCCC2 (stereo unspecified),"activity change, negative = inhibition",[1],inconclusive: -27.2%
CN(C)C(=O)N1CCC(C(=O)NCc2ccccc2Cl)CC1,"activity change, negative = inhibition",[1],inactive
COc1ccc(Oc2ncc3ncc(=O)n(C[C@H]4CCCO4)c3n2)cc1,"activity change, negative = inhibition",[1],inactive
CN1/C(=C\C(=O)c2cccs2)Sc2ccccc21,Potency,[1],"inconclusive: 10 µM [rising, partial curve]"
Nc1ccnc(C(F)(F)F)c1C(=O)c1ccccc1,"activity change, negative = inhibition",[1],inconclusive: -19.9%
O=C1c2oc3ccccc3c(=O)c2C(c2cccc(Br)c2)N1Cc1ccco1 (stereo unspecified),"activity change, negative = inhibition",[1],inactive
Cc1ccc2nc(-c3ccc(SCC(=O)Nc4cc(C)on4)nc3)[nH]c2c1,Potency,[1],"inconclusive: 12.6 µM [rising, single point]"
CC(C)c1cc(C(=O)NCc2cccnc2)no1,"activity change, negative = inhibition",[1],inconclusive: 8.68%
CC(C)(C)c1cc(/C=C(\C#N)C(N)=S)cc(C(C)(C)C)c1O,"activity change, negative = inhibition",[1],inconclusive: -23.4%
CCCCSc1nc2c(cc1C#N)CCC2,"activity change, negative = inhibition",[1],inactive
O=C1C2C3C=CC(C3)C2C(=O)N1c1cccc(-c2nc3ccccc3o2)c1 (stereo unspecified),"activity change, negative = inhibition",[1],inactive
COc1ccccc1N=c1oc2cc(O)ccc2cc1C(N)=O,Potency,[1],"inconclusive: 12.6 µM [rising, partial curve]"
Cc1cc(-c2ccccc2)nc2cc(C(N)=O)nn12,Potency,[1],"inconclusive: 25.1 µM [rising, single point]"
CCOC(=O)c1cccc(NC(=O)CSc2nnc(COc3ccccc3)n2CC)c1,"activity change, negative = inhibition",[1],inactive
COc1ccc2[nH]c(C)c(CN3CCCC(C)C3)c(=O)c2c1 (stereo unspecified),"activity change, negative = inhibition",[1],inconclusive: -7.71%
CCc1cccc(NC(=O)CN2C(=O)NC3(CCCCCCC3)C2=O)c1,"activity change, negative = inhibition",[1],inconclusive: 13.6%
COC(=O)[C@@]1(Cc2ccc(OC)cc2)[C@H]2c3cc(C(=O)N4CCCC4)n(CCc4c[nH]c5cc(F)ccc45)c3C[C@H]2CN1C(=O)c1ccccc1,"activity change, negative = inhibition",[1],inactive
CC(C)C(C(=O)Nc1cccnc1)N1C(=O)c2ccccc2C1=O (stereo unspecified),"activity change, negative = inhibition",[1],inconclusive: -9.33%
Clc1ccc(OCc2nn3c(C4CCCCC4)nnc3s2)c(Cl)c1,"activity change, negative = inhibition",[1],inconclusive: 17.2%
O=C(C1CCN(S(=O)(=O)N2CCC3(CC2)OCCO3)CC1)N1CCOCC1,"activity change, negative = inhibition",[1],inconclusive: -10.2%
COc1ccccc1OCCSc1nc2ccccc2c(=O)[nH]1,Potency,[1],active: 10 µM
CCn1cc(C(=O)NC2CCCCC2C)c(=O)c2ccc(C)nc21 (stereo unspecified),"activity change, negative = inhibition",[1],inconclusive: 28.6%
CCOc1ccccc1NC(=O)CCN1CCN(S(=O)(=O)c2ccc(OC)cc2)CC1,"activity change, negative = inhibition",[1],inconclusive: -12.5%
COc1oc(-c2ccccc2)nc1C(F)(F)F,Potency,[1],"inconclusive: 15.8 µM [rising, partial curve]"
CCOC(=O)N1CCN(C(=O)c2ccc3c(SCC(=O)O)c4c(nc3c2)CCCC4)CC1,"activity change, negative = inhibition",[1],inactive
COc1ccccc1C(=O)Nc1nc2ccc(S(C)(=O)=O)cc2s1,Potency,[1],"inconclusive: 5.01 µM [rising, partial curve]"
O=C(NCCCN1CCCC1)Nc1cccc2ccccc12,"activity change, negative = inhibition",[1],inactive
Cn1cc(-c2nc3cnc(N4CCOCC4)nc3n(CCC#N)c2=O)c2ccccc21,"activity change, negative = inhibition",[1],inconclusive: 19.8%
COc1ccc(CCNC(=O)CCCCn2c(=O)[nH]c3ccccc3c2=O)cc1OC,"activity change, negative = inhibition",[1],inconclusive: 22.6%
CN(C)Cc1cc(C(F)(F)F)ccc1C(O)(c1ccccc1)c1ccccc1,"activity change, negative = inhibition",[1],inactive: -8.98% [at 7.6 µM]
Cc1cc2nnc(SCC(=O)NCc3ccco3)n2c2ccccc12,"activity change, negative = inhibition",[1],inconclusive: 24.2%
O=C(NCCN1CCN(C(=O)NC2CCCCC2)CC1)NC1CCCCC1,"activity change, negative = inhibition",[1],inconclusive: -6.55%
COC1=CC(=O)C[C@@H](C)[C@]12Oc1c(Cl)c(OC)cc(OC)c1C2=O,"activity change, negative = inhibition",[1],inactive
Fc1ccc(-c2nc3n(n2)Cc2ccccc2-3)cc1,Potency,[1],"inconclusive: 6.31 µM [rising, partial curve]"
COC(=O)c1ccc(Cn2cnc3c(cnn3-c3ccc(C)c(C)c3)c2=O)o1,Potency,[1],"inconclusive: 6.31 µM [rising, partial curve]"
CCCCOn1c(C)c(C(=O)OCC)c2c3no[n+]([O-])c3ccc21,Potency,[1],"inconclusive: 3.16 µM [rising, partial curve]"
CCOC(=O)N1CCN(C(=O)CSc2nnc(-c3ccc(Cl)s3)o2)CC1,"activity change, negative = inhibition",[1],inactive
COCc1cc(=O)n2[nH]c(C)cc2n1,"activity change, negative = inhibition",[1],inconclusive: -7.65%
COCCNc1ncncc1-c1ccccc1OC,"activity change, negative = inhibition",[1],inactive
Cc1cc2nnc(SC3CCOC3=O)n2c2ccccc12 (stereo unspecified),Potency,[1],"inconclusive: 12.6 µM [rising, single point]"
O=C(O)c1ccc(/C=N\N=C2c3ccccc3-c3ccccc32)cc1,"activity change, negative = inhibition",[1],inactive: 0.0496% [at 7.6 µM]
CC(O)CCc1nc2ccc(C(=O)O)cc2[nH]1 (stereo unspecified),"activity change, negative = inhibition",[1],inconclusive: 23.4%
CC(C)Oc1cccc(C(=O)Nc2ccccc2N2CCOCC2)c1,"activity change, negative = inhibition",[1],inconclusive: 25.7%
Cc1nc2nc(Cc3ccccc3)nn2c(C)c1Cl,Potency,[1],active: 10 µM
C[C@H](NC(=O)/C(C#N)=C/c1ccc(O)c(O)c1)c1ccccc1,"activity change, negative = inhibition",[1],inconclusive: 18.8%
same,"activity change, negative = inhibition",at 38.2 µM (top of the series),inactive: -11.6% and inactive: -13.5%
Cc1cnc(CNc2nc(-c3cccc(NS(C)(=O)=O)c3)nc3ccccc23)cn1,Potency,[1],active: 12.6 µM
CC1SC(=NC(=O)c2ccco2)NC1=O (stereo unspecified),"activity change, negative = inhibition",[1],inconclusive: -7.38% [at 7.6 µM]
Cc1cc(N(CN2CCCC2=O)C(=O)c2ccc(F)cc2)no1,"activity change, negative = inhibition",[1],inactive
CCc1ccc2[nH]c(=O)c(CN(CCN3CCOCC3)C(=O)Nc3ccccc3F)cc2c1,"activity change, negative = inhibition",[1],inconclusive: 27.3%
